Measurements reported in PubChem BioAssay AID1240 (Sanford-Burnham Center for Chemical Genomics, 2008).
Among all 50,000 compounds or so, about 800 (1.6%) showed an effect of 50% or more. The list shows a part of the results.

What follows are molecules tested against Bcl-2-like protein 10 (Homo sapiens) (UniProt Q9HD36) (assay: TR3 peptide-Bcl-B binding displacers, biochemical primary FP assay, phenotype converters (AID 1240;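 also: 0% = Bcl-B with tracer peptide and DMSO and 100% = tracer peptide lacking Bcl-B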)). Details: GST-Bcl-B / FITC-TR3 peptide fluorescence polarization; stronger effect = higher value; compound at 3.75 mg/L.
UniProt Q9HD36, sequence (Q9HD36 whole entry, looked up): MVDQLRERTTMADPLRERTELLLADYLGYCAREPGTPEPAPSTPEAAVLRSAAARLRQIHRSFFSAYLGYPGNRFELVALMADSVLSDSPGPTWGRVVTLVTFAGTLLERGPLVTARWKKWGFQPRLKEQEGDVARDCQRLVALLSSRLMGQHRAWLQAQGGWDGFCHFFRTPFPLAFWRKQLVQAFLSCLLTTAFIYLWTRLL

Row | Structure (SMILES) | displacement [%]
1 | CCSc1nc2sc3c(c2c2nnnn12)CCC3 | 12.7
2 | Cc1ccc(NC(=O)/C=C/c2ccccc2)cc1 | -3.5
3 | CCSc1nnc(NC(=O)CCC2CCCCC2)s1 | 2.4
4 | CC(C)=CCC/C(C)=C/CC(C)(C)C1OCCO1 | 0.2
5 | CC(C)(C)c1csc(N/N=C/c2ccccn2)n1 | -6.6
6 | CC1=NN(c2ccccc2)C(=O)/C1=C/c1c(O)n(C)c(=O)n(C)c1=O | 11.3
7 | O=C(Nc1ccc(Nc2ccccc2)cc1)c1cccc(Cl)c1 | 8.7
8 | COc1ccc(C2CC(=O)C3=C(C2)Nc2ccccc2NC3c2ccc(F)c(F)c2)cc1OC (configuration not stated) | -5.1
9 | Cc1ccc(S(=O)(=O)NC(=O)NCCc2ccccc2)cc1 | 10.9
10 | CCc1nnc(NC(=O)CN2CCN(C(=O)c3ccccc3)CC2)s1 | 12.6
11 | CCN(CC)c1ccc(N=Cc2ccccc2OCc2ccccc2)cc1 | -8.5
12 | O=c1[nH]c2ccccc2c2nc3ccccn3c12 | -8.7
13 | O=S(=O)(Nc1ccc(O)c2ccccc12)c1cc(Cl)ccc1Cl | 15.9
14 | Cc1cc(C)nc(N/N=C\c2c[nH]c3ccccc23)n1 | -19.3
15 | Cc1sc2c(=O)n3c(nc2c1C(=O)NC1CCCCC1)CCCCC3 | 23.8
16 | Cc1ccc(N2C(=O)CC(NCc3cccc(Cl)c3)C2=O)cc1 (configuration not stated) | 1.2
17 | O=C(O)CCCCCN1C(=O)C(O)=C(C(=O)/C=C/c2ccccc2)C1c1ccc(F)cc1 (configuration not stated) | -1
18 | CC(=O)c1c(C)oc2c1C(=O)c1ccccc1C2=O | 2.9
19 | CCOC(=O)C1=CN(c2ccc(OCC)cc2)C=C(C(=O)OCC)C1c1ccc(OC)c(OC)c1 | 7.6
20 | COc1ccccc1C1=N/C(=C\c2ccc3c(c2)OCO3)C(=O)O1 | 111
21 | C#Cc1cccc(N2C(=O)c3ccc(Oc4cccc([N+](=O)[O-])c4)cc3C2=O)c1 | -3.5
22 | O=C(Nc1ccc(Cc2ccncc2)cc1)c1ccc(Br)o1 | 13.1
23 | COC(=O)C1=C(C)N=c2s/c(=C/C=C/c3ccccc3)c(=O)n2C1c1ccccc1 (configuration not stated) | 3.9

Row | Structure (SMILES) | displacement [%]
24 | CC(=O)COc1ccc2c3c(c(=O)oc2c1C)CCC3 | 12.8
25 | CCOC(=O)COc1ccc2c(=O)c(Oc3ccccc3Br)coc2c1 | -8.7
26 | O=C1c2ccccc2C(=O)N1CN1c2ccccc2CCc2ccccc21 | -8.3
27 | CC(=O)c1cccc(NC(=O)Nc2ccc(Cl)cc2)c1 | 2.2
28 | Cc1nc(N2CCCCC2)[nH]c(=O)c1C=O | -5.9
29 | CC1=C(C(=O)Nc2ccccc2)C(c2ccc(Cl)cc2)NC(=S)N1 (configuration not stated) | -4.2
30 | O=C(c1cc(Cl)cc(Cl)c1)N1CCOCC1 | -5.7
31 | CCOP(=O)(OCC)C(NC(=O)c1ccco1)C(=O)c1ccc(C)cc1 (configuration not stated) | 11.7
32 | Cc1ccc(-c2nnc(-c3cccs3)o2)cc1 | -9.2
33 | COC(=O)C(Cc1ccccc1)NC(=O)CCN1C(=O)c2cccc3cccc(c23)C1=O (configuration not stated) | 15
34 | COc1ccc(C2CC(=O)C3=C(C2)Nc2ccccc2NC3c2ccc(O)cc2)cc1OC (configuration not stated) | 1.8
35 | NC(=O)C1CCN(Cc2c(O)ccc3ccccc23)CC1 | 12.1
36 | COc1ccc(NC(=O)COc2cccc(C)c2C)cc1 | -8.3
37 | CCC(=O)N(Cc1ccco1)C1CC(=O)N(c2ccccc2)C1=O (configuration not stated) | -7.7
38 | CCOC(=O)C1=C(c2ccccc2)NC(=S)NC1c1ccc(SC)cc1 (configuration not stated) | 6.1
39 | COc1cccc(NC(=O)c2cc(Cl)ccc2OC)c1 | 0.3
40 | C/C(Nc1ccccc1)=C(/C#N)C(N)=O | -17.4
41 | C=CCN1C(=O)/C(=C\c2cc([N+](=O)[O-])cc([N+](=O)[O-])c2O)C(=O)NC1=S | 42.1
42 | CCOC(=O)COc1c(Cl)cc(C=C2C(=O)NC(=S)NC2=O)cc1Cl | 15.6
43 | Cc1ccc(-n2c(=O)c3c(n4c(=S)[nH]nc24)-c2ccccc2CC32CCCCC2)cc1 | -22.5
44 | Cc1cc(C(=O)NCCC(C)C)ccc1[N+](=O)[O-] | 8.7
45 | COc1ccc(C(=S)N2CCCC2)c(OC)c1 | -6.7
46 | CCOc1ccccc1C=NN1CCN(Cc2ccccc2)CC1 | -6

Row | Structure (SMILES) | displacement [%]
47 | Cc1ccc(-c2csc(NC(=O)c3ccc(Cl)cc3[N+](=O)[O-])n2)c(C)c1 | -0.3
48 | CC1CCCC(N2CCN(Cc3cccnc3)CC2)C1 (configuration not stated) | -4.7
49 | COc1cc(OC)cc(C(=O)Nc2cc(C)ccc2OC)c1 | 12.4
50 | CS(=O)(=O)c1ccc2nc(NC(=O)c3cc([N+](=O)[O-])ccc3Cl)sc2c1 | -3.8
51 | O=[N+]([O-])c1cccc(N=Cc2ccc[nH]2)c1 | -2.1
52 | Cc1cccc(C)c1NC(=S)NC(=O)/C=C/c1ccccc1 | 12.1
53 | O=C(CSc1nc2ccccc2s1)Nc1ccccc1F | -6.7
54 | Cc1ccc(N2C(=O)CC(NC(C)C34CC5CC(CC(C5)C3)C4)C2=O)cc1 (configuration not stated) | 2.8
55 | O=C(Cc1nc(O)cs1)c1ccccc1 | 4.6
56 | COc1ccc(COC(=O)C2=C(C)NC3=C(C(=O)CC(C)(C)C3)C2c2cc([N+](=O)[O-])ccc2Cl)cc1 (configuration not stated) | -1.2
57 | S=C(NCc1ccco1)NC1CCCC1 | 5.3
58 | NC(=O)c1ccc(NC(=O)c2cc3ccccc3cc2O)cc1 | -8.6
59 | COC(=O)c1c(NC(=O)C(C)C)sc2c1CCCCC2 | -8.3
60 | O=S(=O)(Cc1ccccc1)CC(O)COc1ccc(Cl)cc1 (configuration not stated) | -8.8
61 | O=C(Nc1cccc([N+](=O)[O-])c1)C1COc2ccccc2O1 (configuration not stated) | -4.5
62 | CCSc1nc2sc3c(c2c(=O)n1-c1ccc(OC)cc1)CCC3 | 47.7
63 | Cc1cccc(-n2c(SCC(=O)c3ccccc3)nc3ccccc3c2=O)c1 | -0.7
64 | CCOc1cc(/C=N/Nc2nc(N3CCCCC3)nc(N3CCCCC3)n2)ccc1OC | 8.6
65 | CC1=NN(c2ccccc2)C(=O)/C1=C\c1cn(CCC#N)nc1-c1ccc(C)o1 | -20.1
66 | CCOc1ccc(NC(=O)CN(c2cc(Cl)cc(Cl)c2)S(C)(=O)=O)cc1 | 8.6
67 | CCOC(=O)c1ccc(NC(=O)CN2C(=O)/C(=C/c3ccc(C)cc3)SC2=S)cc1 | 12
68 | Cc1cccc(C)c1OCC(=O)Nc1ccc(Br)cc1C(=O)O | 12
69 | COC(C)(C)CCCC(C)COC(C)=O (configuration not stated) | -8

Row | Structure (SMILES) | displacement [%]
70 | Oc1ccc(/C=N/N2CCN(Cc3cccc4ccccc34)CC2)cc1O | 3.1
71 | COc1ccc(N2C(=O)NC(=O)/C(=C\c3cc(Br)c(OC)cc3OC)C2=O)cc1 | 15.7
72 | O=C(Nc1ccc2nsnc2c1)c1cccs1 | -20.5
73 | O=C(CCN1C(=O)/C(=C\c2cccs2)SC1=S)N1CCOCC1 | 7.5
74 | COc1ccc(CNS(=O)(=O)c2c(C)cc(C)cc2C)cc1 | -5.5
75 | O=C(Cc1ccccc1)Nc1cccc(-c2nnc(-c3cccc(NC(=O)Cc4ccccc4)c3)o2)c1 | 14.2
76 | O=C1NC(=O)N(c2cccc(Br)c2)C(=O)/C1=C/C=C/c1ccccc1 | 17.1
77 | Nc1c(C(=O)C2CC2)sc2nc3c(cc12)CCC3 | -4.1
78 | CCOCCOC(=O)c1ccc(NC(=O)c2cccs2)cc1 | -7.9
79 | Cc1cc(OC(C)C)c2c(-c3ccccc3)cc(=O)oc2c1 | 1.2
80 | CCOc1ccc2nc(NC(=O)COc3ccccc3C)sc2c1 | 8.1
81 | CCN(CC)Cc1c(O)ccc2c(=O)c(-c3ccc(Cl)cc3)coc12 | -1.1
82 | COc1ccc(Cl)cc1N(CC(=O)Nc1cc(C)ccc1C)S(=O)(=O)c1ccc(C)cc1 | 0.9
83 | C[n+]1ccn2c3c(c4cc(C5CCCCC5)ccc42)CCCc31 | 49.2
84 | Cc1ccc(N2NC(=O)/C(=C\c3ccc4c(c3)OCO4)C2=O)cc1 | 2.9
85 | CN(C)CCN1C(=O)C(=O)/C(=C(/O)c2ccccc2)C1c1ccccc1 (configuration not stated) | -4
86 | Cc1cccc(Cl)c1NC(=O)C1CC(=O)N(c2ccc(Br)cc2)C1 (configuration not stated) | 10.9
87 | Cc1c(NC(=O)c2cc3n(n2)C(C(F)(F)F)CC(c2ccc(Cl)c(Cl)c2)N3)c(=O)n(-c2ccccc2)n1C (configuration not stated) | 10.5
88 | Cc1ccccc1NC(=O)c1cccc(N2C(=O)c3ccc(C(=O)O)cc3C2=O)c1 | -13
89 | CC(C)COC(=O)c1ccc(NC(=O)COc2ccccc2Cl)cc1 | -4.9
90 | O=C(CSc1ncn[nH]1)c1ccc(Br)cc1 | 8.5
91 | COc1ccc(C(=O)N2c3ccccc3C(N(C(C)=O)c3ccccc3)CC2C)cc1 (configuration not stated) | 0.4
92 | CCOc1c(Cl)cc(/C=C2\C(=O)NC(=O)N(C)C2=O)cc1Cl | -7.7

Row | Structure (SMILES) | displacement [%]
93 | CCN(CC)CCCCCCOc1ccc(OC)cc1 | 10
94 | CCOc1ccc(-c2cc(C)n3nc(C(=O)N4CCOCC4)cc3n2)cc1 | 0.5
95 | CCOc1cc(Br)cc(C=Nc2ccccc2Sc2c(C)n[nH]c2C)c1O | 1.3
96 | CCOC(=O)C(CCC(=O)CC(C)C)C(C)=O (configuration not stated) | -16
97 | CCOC(=O)c1ccc(-c2ccc(/C=C3/C(=O)NC(=O)N(c4ccc(OC)cc4)C3=O)o2)cc1 | 86.2
98 | C=CCON/C(CCC)=C1/C(=O)CC(C)(C)CC1=NC | -4.4
99 | CCCS(=O)(=O)C(=C(Nc1ccccc1)Nc1ccccc1)S(=O)(=O)CCC | 15.2
100 | CCOC(=O)CCCSc1nc2sc3c(c2c(=O)[nH]1)CCCC3 | 2.2
101 | Cc1c(-c2ccccc2)nc2ccccc2c1C(=O)NCCCc1ccccc1 | 3.3
102 | COc1ccccc1N(CC(=O)Nc1ccccc1)S(=O)(=O)c1ccccc1 | 4.5
103 | CCOC(=O)c1ccc(N=Cc2cccc(OC)c2O)cc1 | 2.2
104 | Cc1cc(Br)ccc1NC(=O)c1ccccc1 | 8.3
105 | O=S(=O)(N/N=C/c1cccnc1)c1ccc(Br)cc1 | 0.3
106 | O=c1c2ccccc2nc(/C=C/c2c(O)ccc3ccccc23)n1-c1ccc(O)cc1 | 0.9
107 | Cc1n[nH]c(C)c1Sc1ccccc1N=Cc1cc(Br)ccc1O | 6.6
108 | Cc1ccc2cc(C)c(NCc3ccccn3)nc2c1 | -2.3
109 | CCc1ccc(-n2c(C)cc(/C=N\NC(=O)c3ccco3)c2C)cc1 | -3
110 | O=C1S/C(=C\c2ccccc2[N+](=O)[O-])C(=O)N1Cc1ccccc1 | -9
111 | O=C(/C=C/c1ccccc1Cl)NCc1cccnc1 | 4.7
112 | O=c1[nH]c(-c2cc(Cl)ccc2O)nc2sc3c(c12)CCCC3 | -11.4
